In test [1] the target is Flag-TRIM5α (UniProt Q9C035). In words: co-IP.
Test [2] has as its target Flag-TRIM5α-dC (UniProt Q9C035). In words: co-IP.
Test [3] concerns the target Flag-tagged Rta (Epstein–Barr virus) (UniProt P03209). Nature of the test: co-IP; lysates of 293T cells cotransfected with a Flag-tagged protein and GFP or GFP fusions; IP with anti-Flag, blot with anti-GFP.
The target in test [4] is Rta expressed from pCMV-Rta (Epstein–Barr virus) (UniProt P03209). In words: co-IP.
Test [5] addresses GST-TRIM5α (UniProt Q9C035). Nature of the test: pull-down; only the target purified.
The target in test [6] is HA-TRIM5α (UniProt Q9C035). In words: co-IP.

No constants are given. Whether binding was seen depends on the method and setting. Binding seen in cells or lysates may run through a third protein. Some results given as binding are weak or reduced against the parent protein; the word gives no strength.

Take “GFP-N190 (from UniProt P03209 1-190) (domain or fragment)”: the binding entry in test [1] and in test [2] was “binds” each time. For GFP-TRIM5α (from UniProt Q9C035 1-493), the binding entry in test [3] is recorded as “binds”. Same read-out and setting: the result for “GFP-TRIM5α-dC (from UniProt Q9C035 1-261) (domain or fragment)” reads “binds”. Still for that read-out and setting: the result for “GFP-TRIM5α-dN (from UniProt Q9C035 81-493) (domain or fragment)” reads “no binding”.

Take “GFP-TRIM5α-dNM (from UniProt Q9C035 261-493) (domain or fragment)”: the binding entry in test [3] is “no binding”. Turning to HA-TRIM5α (from UniProt Q9C035 1-493), in test [4], the binding entry is given as “binds”. Consider “His-tagged Rta (from UniProt P03209 1-605)”, for which the binding entry in test [5] is on record as “binds”. In the case of “Rta expressed from pCMV-Rta (from UniProt P03209 1-605)”, the binding entry in test [6] is “binds”.

For the origin of these results see PMC5214253.
